Measurements taken from the supplement of paper PMC8728848.
The list shows a part of the results.

What was measured:
Experiment in all cases: glycan array binding signal (z-score within array); higher = stronger binding
Conditions in all cases: glycan notation: IUPAC condensed, linker removed
[1] = target: GlcNAc(a1-3)Gal(b1-4)GlcNAc
Procedure, shortened: (§1)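 Arrays were curated from the Consortium for Functional Glycomics database, 3228 in total, and kept only where the protein sequence was available. Binding is expressed as a within-array Z-score. This score was averaged across arrays of the same protein sequence at different concentrations or buffers and across linkers, and negative values can be read as non-binding.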

[2] = target: GlcNAc(a1-6)Gal(b1-4)GlcNAc
Procedure, shortened: as §1

[3] = target: GlcNAc(b1-2)Gal(b1-3)GalNAc
Procedure, shortened: as §1

[4] = target: GlcNAc(b1-2)Man(a1-3)[GlcNAc(b1-2)Man(a1-6)]Man(b1-4)GlcNAc(b1-4)GlcNAc
Procedure, shortened: as §1

[5] = target: GlcNAc(b1-3)Gal
Procedure, shortened: as §1

[6] = target: GlcNAc(b1-3)Gal(b1-3)GalNAc
Procedure, shortened: as §1

[7] = target: GlcNAc(b1-3)Gal(b1-4)Glc
Procedure, shortened: as §1

[8] = target: GlcNAc(b1-3)Gal(b1-4)GlcNAc
Procedure, shortened: as §1

[9] = target: GlcNAc(b1-3)Gal(b1-4)GlcNAc(b1-3)Gal(b1-4)GlcNAc
Procedure, shortened: as §1

[10] = target: GlcNAc(b1-3)GalNAc
Procedure, shortened: as §1

[11] = target: GlcNAc(b1-3)[GlcNAc(b1-6)]Gal(b1-4)GlcNAc
Procedure, shortened: as §1

[12] = target: GlcNAc(b1-3)[GlcNAc(b1-6)]GalNAc
Procedure, shortened: as §1

[13] = target: GlcNAc(b1-3)[GlcNAc(b1-6)]GlcNAc(b1-4)GlcNAc
Procedure, shortened: as §1

[14] = target: GlcNAc(b1-4)Gal(b1-4)GlcNAc
Procedure, shortened: as §1

[15] = target: GlcNAc(b1-4)GlcNAc(b1-4)GlcNAc
Procedure, shortened: as §1

[16] = target: GlcNAc(b1-4)GlcNAc(b1-4)GlcNAc(b1-4)GlcNAc(b1-4)GlcNAc
Procedure, shortened: as §1

[17] = target: GlcNAc(b1-4)GlcNAc(b1-4)GlcNAc(b1-4)GlcNAc(b1-4)GlcNAc(b1-4)GlcNAc
Procedure, shortened: as §1

[18] = target: GlcNAc(b1-4)[GlcNAc(b1-6)]GalNAc
Procedure, shortened: as §1

[19] = target: GlcNAc(b1-6)Gal(b1-4)GlcNAc
Procedure, shortened: as §1

[20] = target: GlcNAc(b1-6)GalNAc
Procedure, shortened: as §1

[21] = target: Kdn(a2-3)Gal(b1-3)GlcNAc
Procedure, shortened: as §1

[22] = target: Kdn(a2-3)Gal(b1-4)GlcNAc
Procedure, shortened: as §1

[23] = target: Man(a1-2)Man(a1-2)Man(a1-3)Man
Procedure, shortened: as §1

[24] = target: Man(a1-2)Man(a1-2)Man(a1-6)[Man(a1-3)]Man
Procedure, shortened: as §1

[25] = target: Man(a1-2)Man(a1-3)Man
Procedure, shortened: as §1

[26] = target: Man(a1-2)Man(a1-3)[Man(a1-2)Man(a1-6)]Man
Procedure, shortened: as §1

[27] = target: Man(a1-2)Man(a1-3)[Man(a1-2)Man(a1-6)]Man(a1-6)[Man(a1-2)Man(a1-2)Man(a1-3)]Man(b1-4)GlcNAc(b1-4)GlcNAc
Procedure, shortened: as §1

[28] = target: Man(a1-2)Man(a1-3)[Man(a1-6)]Man(a1-6)[Man(a1-2)Man(a1-3)]Man(b1-4)GlcNAc(b1-4)GlcNAc
Procedure, shortened: as §1

[29] = target: Man(a1-2)Man(a1-6)[Man(a1-3)]Man(a1-6)[Man(a1-2)Man(a1-2)Man(a1-3)]Man(b1-4)GlcNAc(b1-4)GlcNAc
Procedure, shortened: as §1

[30] = target: Man(a1-3)[Man(a1-6)]Man
Procedure, shortened: as §1

[31] = target: Man(a1-3)[Man(a1-6)]Man(a1-6)[Man(a1-2)Man(a1-3)]Man(b1-4)GlcNAc(b1-4)GlcNAc
Procedure, shortened: as §1

[32] = target: Man(a1-3)[Man(a1-6)]Man(a1-6)[Man(a1-3)]Man(b1-4)GlcNAc(b1-4)GlcNAc
Procedure, shortened: as §1

[33] = target: Man(a1-3)[Man(a1-6)]Man(b1-4)GlcNAc(b1-4)GlcNAc
Procedure, shortened: as §1

[34] = target: Man(b1-4)GlcNAc
Procedure, shortened: as §1

[35] = target: Neu5Ac(a2-3)Gal
Procedure, shortened: as §1

[36] = target: Neu5Ac(a2-3)Gal(b1-3)GalNAc
Procedure, shortened: as §1

[37] = target: Neu5Ac(a2-3)Gal(b1-3)GalNAc(b1-3)Gal(a1-4)Gal(b1-4)Glc
Procedure, shortened: as §1

[38] = target: Neu5Ac(a2-3)Gal(b1-3)GalNAc(b1-3)Gal(b1-4)GlcNAc
Procedure, shortened: as §1

[39] = target: Neu5Ac(a2-3)Gal(b1-3)GalNAc(b1-4)[Neu5Ac(a2-3)]Gal(b1-4)Glc
Procedure, shortened: as §1

[40] = target: Neu5Ac(a2-3)Gal(b1-3)GalNAc6S
Procedure, shortened: as §1

[41] = target: Neu5Ac(a2-3)Gal(b1-3)GlcNAc
Procedure, shortened: as §1

[42] = target: Neu5Ac(a2-3)Gal(b1-3)GlcNAc6S
Procedure, shortened: as §1

[43] = target: Neu5Ac(a2-3)Gal(b1-3)[Fuc(a1-4)]GlcNAc
Procedure, shortened: as §1

[44] = target: Neu5Ac(a2-3)Gal(b1-3)[Fuc(a1-4)]GlcNAc(b1-3)Gal(b1-4)[Fuc(a1-3)]GlcNAc
Procedure, shortened: as §1

[45] = target: Neu5Ac(a2-3)Gal(b1-3)[Neu5Ac(a2-3)Gal(b1-4)]GlcNAc
Procedure, shortened: as §1

B1: MIG/CXCL9 (Homo sapiens) (protein)
chain: TPVVRKGRCSCISTNQGTIHLQSLKDLKQFAPSPSCEKIEIIIATLKNGVQTCLNPDSADVKELIKKTEKQVSQKKKQKNGKKHQKKKVLKVRKSQRSRQKKTT
glycan array binding signal (z-score) [1]: -0.336
glycan array binding signal (z-score) [2]: -0.477
glycan array binding signal (z-score) [3]: -0.21
glycan array binding signal (z-score) [4]: 0.001
glycan array binding signal (z-score) [5]: 0
glycan array binding signal (z-score) [6]: -0.337
glycan array binding signal (z-score) [7]: -0.432
glycan array binding signal (z-score) [8]: 0.173
glycan array binding signal (z-score) [9]: -0.353
glycan array binding signal (z-score) [10]: -0.259
glycan array binding signal (z-score) [11]: -0.12
glycan array binding signal (z-score) [12]: -0.416
glycan array binding signal (z-score) [13]: -0.284
glycan array binding signal (z-score) [14]: 0.09
glycan array binding signal (z-score) [15]: -0.264
glycan array binding signal (z-score) [16]: -0.044
glycan array binding signal (z-score) [17]: -0.276
glycan array binding signal (z-score) [18]: -0.459
glycan array binding signal (z-score) [19]: -0.332
glycan array binding signal (z-score) [20]: -0.438
glycan array binding signal (z-score) [21]: -0.418
glycan array binding signal (z-score) [22]: -0.335
glycan array binding signal (z-score) [23]: -0.265
glycan array binding signal (z-score) [24]: -0.289
glycan array binding signal (z-score) [25]: 0.019
glycan array binding signal (z-score) [26]: -0.339
glycan array binding signal (z-score) [27]: -0.343
glycan array binding signal (z-score) [28]: -0.274
glycan array binding signal (z-score) [29]: -0.358
glycan array binding signal (z-score) [30]: 0.335
glycan array binding signal (z-score) [31]: -0.336
glycan array binding signal (z-score) [32]: -0.439
glycan array binding signal (z-score) [33]: -0.361
glycan array binding signal (z-score) [34]: 0.098
glycan array binding signal (z-score) [35]: -0.037
glycan array binding signal (z-score) [36]: -0.282
glycan array binding signal (z-score) [37]: -0.256
glycan array binding signal (z-score) [38]: -0.37
glycan array binding signal (z-score) [39]: -0.243
glycan array binding signal (z-score) [40]: 0.602
glycan array binding signal (z-score) [41]: -0.037
glycan array binding signal (z-score) [42]: 0.125
glycan array binding signal (z-score) [43]: -0.391
glycan array binding signal (z-score) [44]: 0.05
glycan array binding signal (z-score) [45]: -0.303
